# Data reported in paper PMC4336329 (PLoS ONE, 2015).
# The campaign covered roughly 310,000 compounds. About 2,200 (0.71%) showed an effect of 50% or more. The effect is printed as a negative number. This is one part of the list.
# Target: human ether-à-go-go-related gene (hERG) potassium channel (human, UniProt Q12809)
# Experiment: primary screen, population patch clamp on CHO cells stably expressing hERG
# Chain of human ether-à-go-go-related gene (hERG) potassium channel (Q12809 whole entry, looked up): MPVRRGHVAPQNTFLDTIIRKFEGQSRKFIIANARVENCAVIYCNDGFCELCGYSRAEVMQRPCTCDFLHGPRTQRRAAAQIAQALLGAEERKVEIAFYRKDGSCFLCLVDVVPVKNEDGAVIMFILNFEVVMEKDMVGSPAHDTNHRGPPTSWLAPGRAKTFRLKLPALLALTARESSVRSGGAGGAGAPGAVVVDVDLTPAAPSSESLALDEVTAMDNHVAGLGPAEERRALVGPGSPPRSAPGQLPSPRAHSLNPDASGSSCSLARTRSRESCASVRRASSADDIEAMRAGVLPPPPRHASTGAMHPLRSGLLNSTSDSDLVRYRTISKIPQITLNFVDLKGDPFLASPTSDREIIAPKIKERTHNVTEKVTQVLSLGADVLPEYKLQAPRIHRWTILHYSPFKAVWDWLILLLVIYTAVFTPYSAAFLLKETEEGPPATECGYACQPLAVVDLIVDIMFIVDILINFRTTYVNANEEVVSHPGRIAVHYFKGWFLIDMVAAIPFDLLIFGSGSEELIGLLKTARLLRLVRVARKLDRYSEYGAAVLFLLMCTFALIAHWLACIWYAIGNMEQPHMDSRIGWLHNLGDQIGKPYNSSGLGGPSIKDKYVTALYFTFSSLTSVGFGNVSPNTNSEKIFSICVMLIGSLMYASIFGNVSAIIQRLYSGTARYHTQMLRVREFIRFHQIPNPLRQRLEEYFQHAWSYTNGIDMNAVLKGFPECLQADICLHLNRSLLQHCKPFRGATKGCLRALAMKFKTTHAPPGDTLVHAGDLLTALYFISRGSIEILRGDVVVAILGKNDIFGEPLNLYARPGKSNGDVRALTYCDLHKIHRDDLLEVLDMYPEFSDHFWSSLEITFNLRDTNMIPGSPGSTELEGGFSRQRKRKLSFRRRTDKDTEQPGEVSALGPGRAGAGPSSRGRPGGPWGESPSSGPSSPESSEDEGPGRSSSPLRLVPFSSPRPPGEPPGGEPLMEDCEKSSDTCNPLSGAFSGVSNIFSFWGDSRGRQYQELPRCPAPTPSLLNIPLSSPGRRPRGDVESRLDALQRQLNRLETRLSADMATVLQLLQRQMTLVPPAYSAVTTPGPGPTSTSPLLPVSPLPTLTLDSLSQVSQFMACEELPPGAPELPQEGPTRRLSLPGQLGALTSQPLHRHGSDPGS
row,SMILES,"hERG current change (%, negative = inhibition) at 1uM [%]"
1,CCc1c(C)sc(NC(=S)N2CCN(S(C)(=O)=O)CC2)c1C(=O)OC,2.61
2,Cc1ccccc1CN(c1ccc(C(=O)NCC2CCCO2)cc1)S(C)(=O)=O (centres unmarked),8.61
3,Cc1ccc(Oc2nc(-c3cccnc3)nc3ccccc23)c([N+](=O)[O-])n1,10.2
4,CCOc1ccc2nc(NCCCO)[nH]c2c1,14.9
5,CC(=O)c1c(C(C)=O)c(C)n(NC(=O)c2ccc(Cl)cc2)c1C,17.5
6,COCCNc1nnc(SCC(=O)Nc2sc3c(c2C(=O)c2ccccc2)CCCC3)s1,1.79
7,COC(=O)C(C(=O)OC)c1ccc(N)cc1,7.62
8,COc1ccc(C(=O)Nc2ccc(NC(=O)CSc3nnc(-c4ccncc4)n3C)cc2)cc1,-1.89
9,CCOC(=O)N1CCN(C(=O)CCCCCn2c(=S)[nH]c3ccsc3c2=O)CC1,3.36
10,CC(C)OCCCNC(=O)CN1C(=O)/C(=C/c2ccccc2F)Oc2ccccc21,6.64
11,COc1cccc2cc(C(=O)N(C)C)c(=O)oc12,11.6
12,O=c1oc2ccccc2n1CCCOc1ccccc1,-14.3
13,Cc1ccc2c(c1)N(C(=O)CCC(=O)Nc1ccccc1Br)CC(C)O2 (centres unmarked),9.85
14,Cc1csc(N2CCCC2c2nc3cc(C(F)(F)F)ccc3n2CCOCCO)n1 (centres unmarked),-62.8
15,CC1CCN(C(=O)CCc2ccc(S(=O)(=O)NC(C)C)cc2)CC1,10.7
16,CCN(CC(=O)NCc1cccs1)S(=O)(=O)c1ccc(F)c(F)c1F,9
17,O=C(CCC1N=C2c3ccccc3N=C(SCc3ccc(F)cc3)N2C1=O)NCc1ccco1 (centres unmarked),-22.5
18,Cc1ccc(-c2nc3ncccc3o2)cc1NC(=O)c1cccnc1,-2.14
19,COc1ccc2cc(CN(CCCN3CCOCC3)Cc3nnnn3C3CCCC3)c(=O)[nH]c2c1,-1.7
20,CCC(C)[C@H](N)c1cn([C@@H](Cc2ccc(O)cc2)C(=O)N2CCNCC2)nn1.Cl (some centres unmarked),12.8
21,COc1ccc(N2CCN(C(=O)CCCn3c(=S)[nH]c4cc5c(cc4c3=O)OCO5)CC2)cc1,9.64
22,O=C(O)CSc1nnc(C2CC2)n1-c1ccccc1,8.01

row,SMILES,"hERG current change (%, negative = inhibition) at 1uM [%]"
1,Cc1ccc(C)c(/C=N/NC(=S)NCCc2ccccc2)c1,7.28
2,O=C(c1sccc1-n1cccc1)N1CCCC1,13
3,CC(C)CNC(=O)/C=C/C(=O)O,11.3
4,O=C(COC(=O)c1ccc2c(c1)C(=O)N(Cc1ccco1)C2=O)NCC(F)(F)F,3.39
5,O=C(CNC(=O)C12CC3CC(CC(C3)C1)C2)Nc1ncccc1O,-3.13
6,CCOc1ccc(N2C(=O)/C(=C/c3cccs3)N(CC(=O)OC)C2=S)cc1,0.989
7,COC/C=C1\CN2C3C[C@@H]1[C@H]1COC4=Nc5cc(OC)c(OC)c(OC)c5[C@@]43C[C@@H]12,7.63
8,O=C(Nc1cccnc1)c1ccc(-c2cc(Cl)ccc2Cl)o1,12.1
9,O=C(O)CCCNS(=O)(=O)c1ccc2c(c1)OCCCO2,5.3
10,COCCOC(=O)c1c(C)oc2ccc(NS(=O)(=O)c3ccc(F)cc3)cc12,7.54
11,COc1ccc(N2CCN(C(=O)CNC(=O)Cn3c(C)cc4ccccc4c3=O)CC2)cc1,10.1
12,O=C(NC1CCCCC1)c1ccc(CS(=O)Cc2ccc(Cl)cc2)o1 (centres unmarked),-6.07
13,O=C(NCc1ccc2c(c1)OCO2)c1cc2ccccc2oc1=O,5.23
14,CCOC(=O)c1nc(-c2ccc3c(c2)OCO3)[nH]c1C,1.6
15,O=C(c1cc2ccccc2oc1=O)N(Cc1ccc2c(c1)OCO2)Cc1ccco1,-15.5
16,CC(OC(=O)c1ccc(NC(=O)CC#N)cc1)C(=O)Nc1ccc(Oc2ccccc2)cc1 (centres unmarked),11.1
17,CCOc1ccccc1NC(=O)N1CCC(NC(=O)c2ccccc2C)CC1,9.93
18,COCCn1nnnc1C(c1cc2cc(C)cc(C)c2[nH]c1=O)N1CCN(c2ccccc2F)CC1 (centres unmarked),-4.32
19,COc1ccc(S(=O)(=O)/C(C#N)=C/Nc2cccc(F)c2)cc1,12.9
20,COc1ccccc1NC(=O)N1c2ccccc2NC(=O)CC1C (centres unmarked),9.35
21,N#CCCN(Cc1ccccc1)C(=O)c1cccs1,12.5
22,CS(=O)(=O)c1ccc(Cl)c(NC(=O)CN2C(=O)C3CCCCC3C2=O)c1 (centres unmarked),8.07
